# The source holds several records for some structures; these can differ, active in one and inactive in another.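 The endpoint reported here, percent growth, reads 100 for growth as untreated, 0 for no net growth and -100 for all cells dead.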 Some entries of the source have several records that differ or are many. They are shown here; other results are not. The calls were made as follows: active = growth percent below 10; inactive = the rest. The source may hold further records. The values listed for one entry are repeats in other runs, samples, wells, individuals or studies. Brackets tell where a record comes from. The letters are not those of the source and start again with each entry. Marks such as [2022-09] give the month of the run.
# Test system: UACC-62 melanoma
# Assay: NCI-60 one-dose screen, 48 h (100 = growth as untreated, 0 = no growth, -100 = all killed)
# Conditions: 100 µM
row,Structure (SMILES),growth
1,O=C1NC(N/N=C\C(O)C(O)C(O)CO)=N/C1=C/c1ccccc1 (stereo not given),"inactive: 87.2%, 26.1% [sample A, 1996-03] and inactive: 68.7% [sample B, 1996-03] and active: -100% [sample B, 1996-03]"
2,Cc1ccc(OCC2OC(n3cnc4c(Cl)ncnc43)CC2Oc2ccc(C)cc2)cc1 (stereo not given),"active: -73.8%, -86.5% [sample A, 1996-04] and active: 2.39%, -100% [sample B, 1996-04]"
3,O=C1NC(N/N=C\C(O)C(O)C(O)C(O)CO)=N/C1=C/c1ccc(Cl)cc1 (stereo not given),"inactive: 67.7% [sample A, 1996-03] and active: 8.24% [sample A, 1996-03] and inactive: 83.2% [sample B, 1996-03] and active: -84.8% [sample B, 1996-03]"

# Test system: TK-10 renal
# Assay: as above
# Conditions: 100 µM
row,Structure (SMILES),growth
1,O=C1NC(N/N=C\C(O)C(O)C(O)CO)=N/C1=C/c1ccccc1 (stereo not given),"inactive: 141%, 68.9% [sample A, 1996-03] and inactive: 124% [sample B, 1996-03] and active: -49.6% [sample B, 1996-03]"
2,Cc1ccc(OCC2OC(n3cnc4c(Cl)ncnc43)CC2Oc2ccc(C)cc2)cc1 (stereo not given),"inactive: 106% [sample A, 1996-04] and active: -66.5% [sample A, 1996-04] and inactive: 102% [sample B, 1996-04] and active: -97.6% [sample B, 1996-04]"
3,O=C1NC(N/N=C\C(O)C(O)C(O)C(O)CO)=N/C1=C/c1ccc(Cl)cc1 (stereo not given),"inactive: 118%, 47.2% [sample A, 1996-03] and inactive: 120% [sample B, 1996-03] and active: -42.4% [sample B, 1996-03]"

# Test system: MCF7 breast
# Assay: as above
# Conditions: 100 µM
row,Structure (SMILES),growth
1,O=C1NC(N/N=C\C(O)C(O)C(O)CO)=N/C1=C/c1ccccc1 (stereo not given),"inactive: 80.6%, 28.9% [sample A, 1996-03] and inactive: 58.6% [sample B, 1996-03] and active: -44.6% [sample B, 1996-03]"
2,O=C1NC(N/N=C\C(O)C(O)C(O)CO)=N/C1=C/c1ccc(Cl)cc1 (stereo not given),"inactive: 12.1% [sample A, 1996-03] and active: -63.1% [sample A, 1996-03] and inactive: 32.6% [sample B, 1996-03] and active: -100% [sample B, 1996-03]"
3,Cc1ccc(OCC2OC(n3cnc4c(Cl)ncnc43)CC2Oc2ccc(C)cc2)cc1 (stereo not given),"active: -1.99%, -84.9% [sample A, 1996-04] and inactive: 13.8% [sample B, 1996-04] and active: -97.2% [sample B, 1996-04]"
4,O=C1NC(N/N=C\C(O)C(O)C(O)C(O)CO)=N/C1=C/c1ccc(Cl)cc1 (stereo not given),"inactive: 62.6%, 46.6% [sample A, 1996-03] and inactive: 68.9% [sample B, 1996-03] and active: 5.52% [sample B, 1996-03]"

# Reference: PubChem BioAssay (NCI)
